This is an account of results in patent publication US20250214977A1, “STAT6 INHIBITORS AND USES THEREOF” (Kymera Therapeutics, Inc., priority 2024, published 2025).

Where “and” joins values, the source holds several entries; their conditions need not be identical. Equal values may be shown once.

For the test, the target named is T1, biotinylated truncated STAT6 (123-632)-avi (Homo sapiens, UniProt P42226).
T1 sequence (P42226 123-632 limits assumed): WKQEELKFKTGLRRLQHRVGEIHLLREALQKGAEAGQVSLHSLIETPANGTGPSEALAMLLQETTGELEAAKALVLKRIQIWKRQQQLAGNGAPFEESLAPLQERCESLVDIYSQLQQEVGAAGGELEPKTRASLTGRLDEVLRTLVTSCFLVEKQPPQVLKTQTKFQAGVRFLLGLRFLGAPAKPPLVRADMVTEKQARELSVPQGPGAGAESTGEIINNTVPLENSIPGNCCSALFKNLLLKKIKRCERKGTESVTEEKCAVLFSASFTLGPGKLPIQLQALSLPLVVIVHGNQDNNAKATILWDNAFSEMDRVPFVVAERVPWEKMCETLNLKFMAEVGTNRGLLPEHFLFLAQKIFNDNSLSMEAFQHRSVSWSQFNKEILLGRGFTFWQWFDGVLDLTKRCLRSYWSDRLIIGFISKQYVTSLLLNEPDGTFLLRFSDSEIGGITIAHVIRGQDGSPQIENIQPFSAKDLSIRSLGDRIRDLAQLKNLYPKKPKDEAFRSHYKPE
The test can be described thus: Homogenous Time-Resolved Fluorescence (HTRF) binding assay. Conditions: 0.15 nM biotinylated truncated STAT6 (123-632)-avi, 20 nM fluorescein-labeled probe, 30 minutes at room temperature.

One may read the IC50 as the concentration that inhibits the measured activity by half. Molecule `CCc1cc(C)ncc1-c1cc(C2=CCCN(C(=O)CCn3cccn3)C2)c(F)c2[nH]c(C(=O)N3CCN(c4nc(C)c(F)cc4OC)CC3)cc12` [Example I-738] showed an IC50 of less than 100 nM. To `CCc1cc(C)ncc1-c1cc(C2=CCCN(C(=O)CCn3ccnn3)C2)c(F)c2[nH]c(C(=O)N3CCN(c4ccc(F)cc4OC)CC3)cc12` [Example I-739] belongs less than 100 nM; to `COc1cc(F)c(C)nc1N1CCN(C(=O)c2cc3c(-c4cnc(C)cc4C(C)C)cc(C4=CCCN(C(=O)CCn5ccnn5)C4)c(F)c3[nH]2)CC1` [Example I-740], less than 100 nM; to `CCc1cc(CC)c(-c2cc(C3=CCCN(C(=O)CCn4cccn4)C3)c(F)c3[nH]c(C(=O)N4CCN(c5nc(C)c(F)cc5OC)CC4)cc23)cn1` [Example I-741], 100 to 1000 nM. In the case of `CCc1cc(C)ncc1-c1cc(C2=CCCN(C(=O)CCn3ccnn3)C2)c(F)c2[nH]c(C(=O)N3CCN(c4ncc(F)cc4OC)CC3)cc12` [Example I-742], the IC50 was less than 100 nM.

`CCC1=C(c2cc(C3=CCCN(C(=O)CCn4ccnn4)C3)c(F)c3[nH]c(C(=O)N4CCN(c5ncc(F)cc5OC)CC4)cc23)CNCC1` [Example I-743] returned an IC50 of less than 100 nM. Molecule `CCc1ccc(-c2cc(C3=CCCN(C(=O)CCn4ccnn4)C3)c(F)c3[nH]c(C(=O)N4Cc5cnn(CC)c5C4)cc23)c(C)n1` [Example I-761] gave an IC50 of more than 100000 nM. In the case of `CCn1ncc2c1CN(C(=O)c1cc3c(-c4ccc(C5CC5)nc4C)cc(C4=CCCN(C(=O)CCn5ccnn5)C4)c(F)c3[nH]1)C2` [Example I-762], the IC50 is more than 100000 nM. In turn, `CCc1cc(C(F)F)ncc1-c1cc(C2=CCCN(C(=O)CCn3ccnn3)C2)c(F)c2[nH]c(C(=O)N3CCN(c4nc(C)c(F)cc4OC)CC3)cc12` [Example I-763] yielded a half-inhibitory concentration (IC50) of less than 100 nM. To `CCc1nc(C)ncc1-c1cc(C2=CCCN(C(=O)CCn3ccnn3)C2)c(F)c2[nH]c(C(=O)N3Cc4cnn(CC)c4C3)cc12` [Example I-764] belongs less than 100 nM. The figure for `CCn1ncc2c1CN(C(=O)c1cc(C3=CCCCC3)c3c(c1)cc(C1=CCCN(C(=O)CCn4ccnn4)C1)n3CC1CC1)C2` [Example I-765] is less than 100 nM. As to `CCn1ncc2c1CN(C(=O)c1cc3c(-c4cnc(C5CC5)cc4C)cc(C4=CCCN(C(=O)CCn5ccnn5)C4)c(F)c3[nH]1)C2` [Example I-766], the half-maximal inhibitory concentration (IC50) is more than 100000 nM. `CCc1cc(C(F)F)ncc1-c1cc(C2=CCCN(C(=O)CCn3ccnn3)C2)c(F)c2[nH]c(C(=O)N3Cc4cnn(CC)c4C3)cc12` [Example I-767] displayed an IC50 of more than 100000 nM. Take `CCn1ncc2c1CN(C(=O)c1cc(C3CC3)c3c(c1)cc(C1=CCCN(C(=O)CCn4ccnn4)C1)n3CC1CC1)C2` [Example I-768]: the IC50 was more than 100000 nM. `COc1ccccc1-c1cc(C2=CCCN(C(=O)CCn3ccnn3)C2)c(F)c2[nH]c(C(=O)N3CCN(c4ccc(F)c(F)c4F)CC3)cc12` [Example I-769] displayed an IC50 of less than 100 nM. With `COc1ccccc1-c1cc(C2=CCCN(C(=O)CCn3ccnn3)C2)c(F)c2[nH]c(C(=O)N3CCN(c4ccc5c(c4)c4ccccc4n5C)CC3)cc12` [Example I-770], the half-inhibitory concentration (IC50) was 1000 to 10000 nM. As for `COc1ccccc1-c1cc(C2=CCCN(C(=O)CCn3ccnn3)C2)c(F)c2[nH]c(C(=O)N3CCN(c4cc(C#N)cc5[nH]ccc45)CC3)cc12` [Example I-771], the IC50 was less than 100 nM. For `COc1ccccc1-c1cc(C2=CCCN(C(=O)CCn3ccnn3)C2)c(F)c2[nH]c(C(=O)NC(C#N)c3ccccc3)cc12` (stereo not shown) [Example I-772], the IC50 is more than 100000 nM. The figure for `COc1ccccc1-c1cc(C2=CCCN(C(=O)CCn3ccnn3)C2)c(F)c2[nH]c(C(=O)N3CCN(C(C)(C)C)CC3)cc12` [Example I-773] is less than 100 nM; for `COc1ccccc1-c1cc(C2=CCCN(C(=O)CCn3ccnn3)C2)c(F)c2[nH]c(C(=O)N3CCN(c4cccnc4)CC3)cc12` [Example I-774] it is less than 100 nM. `COc1ccccc1-c1cc(C2=CCCN(C(=O)CCn3ccnn3)C2)c(F)c2[nH]c(C(=O)N3CCN(c4c(C)nn(C)c4C#N)CC3)cc12` [Example I-775]: the IC50 is less than 100 nM.

Regarding `COc1ccccc1-c1cc(C2=CCCN(C(=O)CCn3ccnn3)C2)c(F)c2[nH]c(C(=O)N3CCN(c4ccsc4C#N)CC3)cc12` [Example I-776], the half-maximal inhibitory concentration (IC50) is less than 100 nM. Molecule `COc1ccccc1-c1cc(C2=CCCN(C(=O)CCn3ccnn3)C2)c(F)c2[nH]c(C(=O)N3CCN(c4scnc4C)CC3)cc12` [Example I-777] displayed an IC50 of less than 100 nM. To `COc1ccccc1-c1cc(C2=CCCN(C(=O)CCn3ccnn3)C2)c(F)c2[nH]c(C(=O)N3CCN(c4nnn(C)c4C)CC3)cc12` [Example I-778] belongs less than 100 nM; to `COc1cc(F)cnc1N1CCN(C(=O)c2cc3c(C4CCCCN4C)cc(C4=CCCN(C(=O)CCn5ccnn5)C4)c(F)c3[nH]2)CC1` (stereo not shown) [Example I-780], less than 100 nM. The molecule `CCC1CN(C)CCC1c1cc(C2=CCCN(C(=O)CCn3ccnn3)C2)c(F)c2[nH]c(C(=O)N3CCN(c4ncc(F)cc4OC)CC3)cc12` (stereo not shown) [Example I-781] returned an IC50 of less than 100 nM.

`CCC1=C(c2cc(C3=CCCN(C(=O)CCn4ccnn4)C3)c(F)c3[nH]c(C(=O)N4CCN(c5ncc(F)cc5OC)CC4)cc23)CN(C)C1` [Example I-782]: the half-inhibitory concentration (IC50) is less than 100 nM. Consider `CCC1=C(c2cc(C3=CCCN(C(=O)CCn4ccnn4)C3)c(F)c3[nH]c(C(=O)N4CCN(c5ncc(F)cc5OC)CC4)cc23)CCN(C)C1` [Example I-783, 1-[5-[4-(5-ethyl-1-methyl-3,6-dihydro-2H-pyridin-4-yl)-7-fluoro-2-[4-(5-fluoro-3-methoxy-2-pyridyl)piperazine-1-carbonyl]-1H-indol-6-yl]-3,6-dihydro-2H-pyridin-1-yl]-3-(triazol-1-yl)propan-1-one], for which the IC50 is 100 to 1000 nM and < 100 nM.

On to `CCN1CCCCC1c1cc(C2=CCCN(C(=O)CCn3ccnn3)C2)c(F)c2[nH]c(C(=O)N3CCN(c4ncc(F)cc4OC)CC3)cc12` (stereo not shown) [Example I-784], for which the 50% inhibitory concentration (IC50) was less than 100 nM.

`COc1cc(F)cnc1N1CCN(C(=O)c2cc3c(C4CN(C)C4)cc(C4=CCCN(C(=O)CCn5ccnn5)C4)c(F)c3[nH]2)CC1` [Example I-785]: the IC50 is less than 100 nM. The molecule `CCc1ccncc1-c1cc(C2=CCCN(C(=O)CC(=O)O)C2)c(F)c2[nH]c(C(=O)N3CCN(c4ncc(F)cc4OC)CC3)cc12` [Example I-786] registered an IC50 of less than 100 nM. As for `CCc1ccncc1-c1cc(C2=CCCN(C(=O)CC(=O)O)C2)c(F)c2[nH]c(C(=O)N3Cc4cnn(CC)c4C3)cc12` [Example I-787], the half-maximal inhibitory concentration (IC50) is less than 100 nM. The figure for `CCc1cc(C)ncc1-c1cc(C2=CCCN(C(=O)CC(=O)O)C2)c(F)c2[nH]c(C(=O)N3Cc4cnn(CC)c4C3)cc12` [Example I-788] is less than 100 nM. `CCc1nc(C)ccc1-c1cc(C(=O)N2CCN(c3ncc(F)cc3OC)CC2)cc2cc(C3=CCCN(C(=O)CC(=O)O)C3)n(CC3CC3)c12` [Example I-789, 3-(3-(1—(Cyclopropylmethyl)-7-(2-ethyl-6-methylpyridin-3-yl)-5-(4-(5-fluoro-3-methoxypyridin-2-yl)piperazine-1-carbonyl)-1H-indol-2-yl)-5,6-dihydropyridin-1(2H)-yl)-3-oxopropanoic acid] displayed an IC50 of less than 100 nM. In turn, `CCc1ccncc1-c1cc(C2=CCCN(C(=O)C(=O)O)C2)c(F)c2[nH]c(C(=O)N3CCN(c4ncc(F)cc4OC)CC3)cc12` [Example I-790] showed an IC50 of less than 100 nM. The molecule `COc1ncccc1-c1cc(C(=O)N2Cc3cnn(C)c3C2)cc2cc(C3=CCCN(C(=O)CC(=O)O)C3)n(CC3CC3)c12` [Example I-791] had an IC50 of less than 100 nM. Molecule `CCc1nc(C)ccc1-c1cc(C(=O)N2CCN(c3nc(C)c(F)cc3OC)CC2)cc2cc(C3=CCCN(C(=O)CC(=O)O)C3)n(CC3CC3)c12` [Example I-792] came in with a half-inhibitory concentration (IC50) of less than 100 nM. To `CCc1ccc(-c2cc(C(=O)N3CCN(c4ncc(F)cc4OC)CC3)cc3cc(C4=CCCN(C(C)=O)C4)n(CC4CC4)c23)c(C)n1` [Example I-793] belongs less than 100 nM; to `CCc1nc(C)ccc1-c1cc(C(=O)N2CCN(c3ncc(F)cc3OC)CC2)cc2cc(C3=CCCN(C(=O)CC(=O)O)C3)n(CC)c12` [Example I-794], less than 100 nM. To `COC(=O)CC(=O)N1CCC=C(c2cc3cc(C(=O)N4Cc5cnn(C)c5C4)cc(-c4cccnc4OC)c3n2CC2CC2)C1` [Example I-795] belongs more than 100000 nM.

`CCc1cnccc1-c1cc(C(=O)N2CCN(c3ncc(F)cc3OC)CC2)cc2cc(C3=CCCN(C(=O)C(=O)O)C3)n(CC3CC3)c12` [Example I-796] displayed a half-maximal inhibitory concentration (IC50) of more than 100000 nM. To `CCc1ncccc1-c1cc(C(=O)N2CCN(c3ncc(F)cc3OC)CC2)cc2cc(C3=CCCN(C(=O)C(=O)O)C3)n(CC3CC3)c12` [Example I-797] belongs more than 100000 nM; to `CCc1ccc(-c2cc(C(=O)N3Cc4cnn(CC)c4C3)cc3cc(C4=CCCN(C(=O)C(=O)O)C4)n(CC4CC4)c23)c(C)n1` [Example I-798], more than 100000 nM; to `CCOC(=O)C(=O)N1CCC=C(c2cc3cc(C(=O)N4Cc5cnn(CC)c5C4)cc(-c4ccc(CC)nc4C)c3n2CC2CC2)C1` [Example I-799], more than 100000 nM.

`CCc1nc(C)ccc1-c1cc(C(=O)N2CCN(c3ncc(F)cc3OC)CC2)cc2cc(C3=CCCN(C(=O)CC(=O)O)C3)n(CC(C)C)c12` [Example I-800] gave an IC50 of more than 100000 nM. In the case of `CCc1ccc(-c2cc(C(=O)N3Cc4cnn(CC)c4C3)cc3cc(C4=CCCN(C(=O)CC(=O)O)C4)n(CC(C)C)c23)c(C)n1` [Example I-801], the IC50 is more than 100000 nM.
